The results in this text go back to article PMC7819943, “Rice protein-binding microarrays: a tool to detect cis-acting elements near promoter regions in rice”.

The other results are listed elsewhere or left out.

The target of this assay is T1, OsWOX13 (Oryza sativa, UniProt Q5QMM3 1-267).
T1 sequence: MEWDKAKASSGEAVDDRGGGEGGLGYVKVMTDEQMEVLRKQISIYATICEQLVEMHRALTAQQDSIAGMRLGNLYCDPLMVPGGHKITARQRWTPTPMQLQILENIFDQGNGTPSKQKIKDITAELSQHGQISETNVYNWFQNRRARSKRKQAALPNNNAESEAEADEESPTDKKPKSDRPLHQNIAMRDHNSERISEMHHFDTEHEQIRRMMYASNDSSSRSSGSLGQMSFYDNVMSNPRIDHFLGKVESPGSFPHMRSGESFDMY
Put plainly: protein-binding microarray (RPBM); PBS, 2% BSA, 51.3 ng/ul salmon testes DNA, 50 uM zinc acetate, 200 nM TF, 25 C, 1 h; high values mean tight binding. Particulars: protein: recombinant; tags: N-terminal polyhistidine and DsRed monomer fusion (pET32a); label: CyDye5-dUTP incorporated in the synthesized complementary strand; 3' TTTTT single-stranded linker to array surface; dsDNA, one strand shown. An outline of the steps: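 Per-feature fluorescence intensity (arbitrary units), read on an Axon 4000B scanner, is the binding signal. Transcription factors carrying an N-terminal polyhistidine tag and DsRed fusion were expressed in E. coli BL21-CodonPlus and purified on Ni–NTA. A custom Agilent array, made double-stranded by primer extension with Cy5-dUTP and blocked with 2% BSA, was incubated with 200 nM protein in PBS, 2% BSA, salmon testes DNA and 50 µM zinc acetate at 25 °C for 1 h and then washed.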
With “TCCGATCAAGATTGAAATATCCACTTGTACATATACAACTCGGAGTCACCTAGTGCAG”, the binding signal is 6900 fluorescence intensity (a.u.). In the case of “TCGCACTAAATTAGCCCAACATTCTCCTCGCTTCCTCCTCCGGAGTCACCTAGTGCAG” it was 6860 fluorescence intensity (a.u.). In the case of “TGTCAATCATGTACCTTGTGAACATTTAAGTGCATGTGGACGGAGTCACCTAGTGCAG” it was 17900 fluorescence intensity (a.u.). “ACACCAATTGATTGTTGCTATGCCATACTCTGTAAAACAACGGAGTCACCTAGTGCAG”: the binding signal was 16000 fluorescence intensity (a.u.). In the case of “GTAATTTGGTTAATTTTGAACAAAACCGTTTAAGATGCACCGGAGTCACCTAGTGCAG” it was 15600 fluorescence intensity (a.u.); in that of “TCCTAATTTGGCGAATTACATGCCAGACCAAAAGGGGCTCCGGAGTCACCTAGTGCAG”, 6720 fluorescence intensity (a.u.). With “ATCATAACTAAAGCTAAACTGATGTTTGGTAGACCGTACCCGGAGTCACCTAGTGCAG”, the binding signal is 5170 fluorescence intensity (a.u.).

Turning to “ATAACTATTTAATTGACATGCAATAAATATAAATGGGTAGCGGAGTCACCTAGTGCAG”, the binding signal is 52600 fluorescence intensity (a.u.). As for “AATTTATTAATTAAAATTAGATCTTCTCTTCTAGGCTTTTCGGAGTCACCTAGTGCAG”, the figure is 13400 fluorescence intensity (a.u.); as for “CGTTTCTTGATTCGATGGTTGATGGATTTTGGTTTGTGGACGGAGTCACCTAGTGCAG”, 4980 fluorescence intensity (a.u.); as for “CTCTCTCTAAACCAATTAGCGATTGGATCATTCGGGCCTGCGGAGTCACCTAGTGCAG”, 6680 fluorescence intensity (a.u.). In the case of “CATGATTGAGCAGGTTCCAACGGGCCTACGTGGGCCTTAGCGGAGTCACCTAGTGCAG” it was 16900 fluorescence intensity (a.u.); in that of “TAGTAATTTGTTGGCCACAAGTGTGGCTAAGTTTGGTAAGCGGAGTCACCTAGTGCAG”, 5620 fluorescence intensity (a.u.).

As to “TAAAATTATTTACATGTCTTTGACTTTCTAAAAGAAATCGCGGAGTCACCTAGTGCAG”, the binding signal was 6060 fluorescence intensity (a.u.). As for “TACACTAAAATTACATATGTAATTTAAACACTTACATAGGCGGAGTCACCTAGTGCAG”, the figure is 14400 fluorescence intensity (a.u.); as for “ATAATTAAGCATTTTCTTGTTTCATATGTGCTTGTTTGACCGGAGTCACCTAGTGCAG”, 3680 fluorescence intensity (a.u.); as for “TAACTATAATGAAATTTACTGGGAGTTTATGCTGTGCTTGCGGAGTCACCTAGTGCAG”, 4040 fluorescence intensity (a.u.). With “CATTGATTGGCCAGCCGAGGTCTAGCCTCAACCTAGCGTGCGGAGTCACCTAGTGCAG”, the binding signal is 54800 fluorescence intensity (a.u.). As for “ATGTGATTGATTCTGCTGGTGGATTCTCTCTTCGGTTTGCCGGAGTCACCTAGTGCAG”, the figure is 62800 fluorescence intensity (a.u.). For the sequence “AAAGTAAACAGATGAATAAACCAGTTCTCATGCAAGAAACCGGAGTCACCTAGTGCAG”, the binding signal is 3870 fluorescence intensity (a.u.).

In the case of “TTAAATTGGATCTGATTGATTTGTTTAAGGAAACCACCGGCGGAGTCACCTAGTGCAG”, the binding signal was 54600 fluorescence intensity (a.u.).

As for “GCTACCTGTAATTTACGTTTCGTCAAGAAACCACCTTTTACGGAGTCACCTAGTGCAG”, the binding signal is 4500 fluorescence intensity (a.u.). In the case of “ATGAAAACATGATTGCAAGTGATTCATCAGTGGCGTACAGCGGAGTCACCTAGTGCAG” it was 20000 fluorescence intensity (a.u.); in that of “ACACATGGACTCTCAAAAGTGATTGGCAACTGACAGCTAACGGAGTCACCTAGTGCAG”, 13800 fluorescence intensity (a.u.). For the sequence “ATCACTTAATTTAAGTATATATTAATATAAGAACTATATACGGAGTCACCTAGTGCAG”, the binding signal was 5150 fluorescence intensity (a.u.). In the case of “TAAATTATTAGTAATTGCTAAGTTTTAAAATCCAGAAAGTCGGAGTCACCTAGTGCAG” it was 11700 fluorescence intensity (a.u.).

Regarding “TAACTGCAATTAGGGATGCATGACTAAAATAGAGCCAGCTCGGAGTCACCTAGTGCAG”, the binding signal was 3560 fluorescence intensity (a.u.). As for “TGTGATTACGAGCGCACAGACACAAAGGGTGTAGCTCTCGCGGAGTCACCTAGTGCAG”, the figure is 17800 fluorescence intensity (a.u.); as for “AGTCTAATTGGCAAAAGCAGGTGGTTCTTTTATCTTGAAACGGAGTCACCTAGTGCAG”, 33400 fluorescence intensity (a.u.). As for “ACGGAAATTTACAGTACAATTATTTTCCATTAGCCCGATTCGGAGTCACCTAGTGCAG”, the figure is 10200 fluorescence intensity (a.u.); as for “TCCATCGATCTCTCAATTAATTAACCTCAAGAGAGAAGTACGGAGTCACCTAGTGCAG”, 5890 fluorescence intensity (a.u.); as for “GTATTATAAATTTATAATTGGTGCCAGCCGCAAATTTGCGCGGAGTCACCTAGTGCAG”, 19100 fluorescence intensity (a.u.). With “AGCACCTTCAATTTGTAAATATACATGTAATTGTACAGTACGGAGTCACCTAGTGCAG”, the binding signal was 4750 fluorescence intensity (a.u.).

As for “CCATGATTTTGAAGTACTCTTTTATTTGAAGAAGCAAATTCGGAGTCACCTAGTGCAG”, the binding signal is 6660 fluorescence intensity (a.u.). With “TGCTGGGAATCAATCAACGGGTACAAAAGATGTATGGTGACGGAGTCACCTAGTGCAG”, the binding signal was 5990 fluorescence intensity (a.u.).

Consider “GAGGACAGATCAAATGATTTTAATGACGAAACATGTGCTTCGGAGTCACCTAGTGCAG”, for which the binding signal is 11000 fluorescence intensity (a.u.).

As to “AAATCACAATCATCATTTATTCAATTTCTCTATCTCTACCCGGAGTCACCTAGTGCAG”, the binding signal was 6050 fluorescence intensity (a.u.). As for “ATGCAACCATAGATCAATCAAAGGAGAACATGTTCAGATGCGGAGTCACCTAGTGCAG”, the binding signal is 3980 fluorescence intensity (a.u.). In the case of “GCTAATTGGTTCTCATTCGATTTGCCCATGCTCGAGTTGACGGAGTCACCTAGTGCAG” it was 45400 fluorescence intensity (a.u.); in that of “AATCTAATACTTAATTAATCATGCGATAATATGTCGCTACCGGAGTCACCTAGTGCAG”, 7220 fluorescence intensity (a.u.). On to “ATCCTTAATGCTAATTTGGATATGATGTGAACAAAATGAGCGGAGTCACCTAGTGCAG”, for which the binding signal was 8040 fluorescence intensity (a.u.). In the case of “GTGGATGTAATGAAATTAATTTGACATGAATGCAATTCCTCGGAGTCACCTAGTGCAG” it was 26700 fluorescence intensity (a.u.).
